± gives the standard deviation of the averaged measurements. Over roughly 33,000 sequences, “E-score (dimensionless, -0.5 to 0.5)” has its median near -0.046; the highest 2% begin near 0.36. The list shows a part of the results.
Test system: T1, SpTbr T-box DNA-binding domain (GST fusion)
T1 sequence: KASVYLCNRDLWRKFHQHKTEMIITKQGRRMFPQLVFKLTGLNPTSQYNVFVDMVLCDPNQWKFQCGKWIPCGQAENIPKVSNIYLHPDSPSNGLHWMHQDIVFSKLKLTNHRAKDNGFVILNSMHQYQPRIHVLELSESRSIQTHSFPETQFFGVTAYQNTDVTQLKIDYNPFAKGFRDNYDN
Test: PBM E-score of 8-mer (E-score (dimensionless, -0.5 to 0.5)); Tbr is Tbrain of the sea star Patiria miniata (Pm) or the sea urchin Strongylocentrotus purpuratus (Sp); higher = stronger binding preference; most listed sequences are background and not binding sites
Settings: the construct has about 5 more residues each side
Method in brief: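 Expression of GST-fused Tbr T-box DNA-binding domains, each holding the full T-box plus roughly five flanking residues, was carried out in BL21 E. coli at 20 °C, with purification by glutathione affinity chromatography. Universal Agilent arrays made double-stranded by primer extension were incubated with the protein at 200 nM in PBS (pH 7.5), then scanned and quantified. All ungapped 8-mers were scored from probe intensities, and each received an enrichment E-score from the Universal PBM Analysis Suite, averaged over duplicate arrays.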

Row | Sequence | PBM E-score of 8-mer
1 | AAACGCGA | 0.12 ± 0.016
2 | GTCGCGTA | 0.0514 ± 0.011
3 | ATCGCCAT | 0.0354 ± 0.046
4 | ACTTATAG | 0.0355 ± 0.056
5 | AAGCGAGT | -0.134 ± 0.0023
6 | ATTAAAAG | -0.0493 ± 0.028
7 | ATAAAGAC | -0.156 ± 0.039
8 | AATAGAGG | -0.0703 ± 0.092
9 | CCGCCGAG | -0.0547 ± 0.1
10 | ATCTTACG | -0.163 ± 0.018
11 | AAGTTTGG | -0.094 ± 0.035
12 | CGACAACG | 0.267 ± 0.017
13 | AACTGCGG | -0.0804 ± 0.036
14 | ATTAACGA | 0.0966 ± 0.0074
15 | GACAGACA | 0.175 ± 0.023
16 | AACATGTC | 0.00394 ± 0.03
17 | CTGGAGGC | -0.131 ± 0.051
18 | AGTTTATC | -0.121 ± 0.081
19 | CTTTGCCA | 0.0143 ± 0.022
20 | ATTGCGGC | 0.0531 ± 0.015
21 | ATTATCTG | 0.00553 ± 0.015
22 | ACCGCAAA | -0.111 ± 0.0042
23 | ATTCGGGA | -0.246 ± 0.011
24 | CCATCGTA | -0.197 ± 0.042
25 | CCCGGGAA | 0.0553 ± 0.12

Row | Sequence | PBM E-score of 8-mer
26 | AATTCTTA | -0.107 ± 0.051
27 | CATTGACG | 0.163 ± 0.027
28 | CCGTAGCA | -0.113 ± 0.046
29 | GAACGAAA | -0.0923 ± 0.0099
30 | AGGTTAAC | -9e-05 ± 0.072
31 | CCAGTGGG | -0.293 ± 0.064
32 | GGTACTTA | -0.262 ± 0.024
33 | ATAGAGTC | -0.206 ± 0.0048
34 | ACCTTTGC | 0.125 ± 0.0015
35 | CCGTCCGA | -0.095 ± 0.0034
36 | ACACGTCC | 0.3 ± 0.005
37 | AAGATCGC | 0.191 ± 0.013
38 | CCGGGAAG | -0.022 ± 0.044
39 | AGAGTATG | -0.1446 ± 0.00091
40 | CGATACAG | -0.0251 ± 0.13
41 | CCAATTTC | 0.0768 ± 0.033
42 | AAATCGCT | 0.00352 ± 0.036
43 | CAGTAGCC | -0.238 ± 0.072
44 | CCCCGCTC | -0.0391 ± 0.058
45 | ACGGTCCA | -0.169 ± 0.14
46 | CGATCAAC | 0.166 ± 0.05
47 | GCTATATA | -0.0767 ± 0.043
48 | TACACTAA | 0.0909 ± 0.0016
49 | ACATCACG | 0.2315 ± 0.0014
50 | ACCGCCCC | -0.227 ± 0.025

Row | Sequence | PBM E-score of 8-mer
51 | ATGAGATG | -0.0776 ± 0.013
52 | AGCTTAAG | -0.12 ± 0.078
53 | AAAGAGCC | -0.358 ± 0.039
54 | ATGGCCTG | -0.0801 ± 0.06
55 | CTTTGCTC | -0.0235 ± 0.0015
56 | TAGCTGAA | -0.281 ± 0.029
57 | GTCTGCAC | 0.131 ± 0.022
58 | AACTAGGC | -0.0665 ± 0.022
59 | CGCTTCCG | -0.0282 ± 0.071
60 | AGTTCCCG | -0.186 ± 0.049
61 | AGCAAGAA | -0.218 ± 0.0083
62 | CAGTCCTA | -0.0937 ± 0.031
63 | CAGCGATG | 0.0311 ± 0.029
64 | GAGCCAAC | -0.0337 ± 0.0027
65 | GAGTTGAC | 0.165 ± 0.018
66 | ACCGGACT | -0.306 ± 0.011
67 | CATCAGAA | -0.161 ± 0.039
68 | GAAACCCC | -0.0958 ± 0.075
69 | AGGGCTGC | -0.171 ± 0.016
70 | GGGTTTGA | -0.0542 ± 0.055
71 | ATTTCGGA | -0.14 ± 0.054
72 | GTGTGTCA | 0.346 ± 0.0092
73 | GGACACGA | -0.011 ± 0.079
74 | ACCCCCAC | -0.0417 ± 0.086
75 | TAAGGGGA | -0.163 ± 0.0036

Row | Sequence | PBM E-score of 8-mer
76 | ATAACAAT | 0.0414 ± 0.0069
77 | ATCATCGG | -0.0361 ± 0.054
78 | AGAGTCAT | -0.214 ± 0.017
79 | GCGCGTTA | 0.183 ± 0.021
80 | AGCGTCAA | 0.317 ± 0.0075
81 | ATTGACGC | 0.3005 ± 0.00032
82 | ACTTCGAA | 0.0384 ± 0.021
83 | CAGTATCC | -0.104 ± 0.041
84 | CGGATAAC | -0.141 ± 0.08
85 | GAACCGAC | 0.0433 ± 0.0082
86 | GGGCGCAC | -0.0583 ± 0.009
87 | CTCCCTAC | -0.19 ± 0.015
88 | CGTGGTCA | 0.102 ± 0.027
89 | ATAAAATG | -0.114 ± 0.021
90 | ACTCTGGC | -0.0882 ± 0.044
91 | AATATTAC | -0.0701 ± 0.068
92 | AAGGACCA | -0.196 ± 0.017
93 | ATATCGCA | 0.197 ± 0.045
94 | AGCGGGAT | -0.155 ± 0.021
95 | ATTTCATG | -0.179 ± 0.013
96 | GATATGGC | -0.116 ± 0.086
97 | CCGGGAGG | -0.0709 ± 0.013
98 | CGAAATGA | 0.0519 ± 0.022
99 | CAGAAGGC | 0.198 ± 0.043
100 | CTGTTGGA | 0.0702 ± 0.044

Row | Sequence | PBM E-score of 8-mer
101 | AGACAGAA | -0.125 ± 0.006
102 | ATTGAGTA | -0.0779 ± 0.023
103 | GGAGACTA | -0.249 ± 0.027
104 | ACAGATGG | -0.12 ± 0.0086
105 | AGGATGAC | 0.0367 ± 0.12
106 | ATGGTCGA | 0.00294 ± 0.03
107 | ACACGTGT | 0.395 ± 0.0082
108 | GGAAGAGA | -0.229 ± 0.021
109 | CCGCCAGC | -0.0351 ± 0.072
110 | GAACGTCA | -0.0514 ± 0.1
111 | CGGTATTA | 0.0771 ± 0.012
112 | CAGAGCGG | -0.287 ± 0.061
113 | CCTGCCTA | -0.159 ± 0.015
114 | AGTTGTTG | 0.245 ± 0.024
115 | ATATACTA | 0.011 ± 0.11
116 | CCCGTGTA | -0.107 ± 0.032
117 | AAGAAACG | -0.227 ± 0.091
118 | TCAGTCGA | -0.0358 ± 0.019
119 | CCTGAGAA | -0.173 ± 0.085
120 | GGCTACCC | -0.193 ± 0.0063
121 | GGATCCGA | -0.0865 ± 0.026
122 | GACATGTC | 0.192 ± 0.052
123 | ATTATCTA | -0.127 ± 0.056
124 | ACCCGGAC | 0.013 ± 0.009
125 | AAAAAACA | -0.111 ± 0.083

Row | Sequence | PBM E-score of 8-mer
126 | GTTATGCA | 0.039 ± 0.038
127 | GAAGGCGA | 0.175 ± 0.0091
128 | ATCATACC | -0.211 ± 0.084
129 | CGTAACTA | -0.166 ± 0.044
130 | AAAAGAGC | -0.135 ± 0.0089
131 | AGTATATC | -0.115 ± 0.034
132 | ATGTAGGA | 0.038 ± 0.033
133 | ATCGACAT | -0.0174 ± 0.1
134 | CGGTTTTC | -0.0891 ± 0.0075
135 | CGTTCGGC | -0.0415 ± 0.015
136 | GCTGCACC | 0.141 ± 0.011
137 | CGCATTAC | 0.136 ± 0.0027
138 | CTACCATC | 0.0351 ± 0.025
139 | AGAGCTTA | -0.124 ± 0.0042
140 | ATCTCATA | -0.184 ± 0.074
141 | CCCGGAAC | -0.208 ± 0.096
142 | AACTGTAA | 0.0753 ± 0.045
143 | GAGGCCGC | -0.104 ± 0.058
144 | ACCTCATC | -0.0449 ± 0.071
145 | CGGGCTTA | -0.207 ± 0.027
146 | CGGACCCG | 0.0712 ± 0.068
147 | AGCGGGTG | 0.259 ± 0.027
148 | GATTACAC | 0.326 ± 0.022
149 | GCAAGGGA | -0.0505 ± 0.022
150 | ACCTTCAC | 0.3011 ± 0.0014

Row | Sequence | PBM E-score of 8-mer
151 | ATATTATC | -0.000595 ± 0.005
152 | AGTCGCTA | 0.276 ± 0.033
153 | CATAGCCA | -0.0202 ± 0.041
154 | CTAGGCCC | -0.305 ± 0.051
155 | GTGGGACA | 0.12 ± 0.043
156 | CAAGTCCC | 0.0954 ± 0.012
157 | GACCGTAC | -0.15 ± 0.024
158 | CACTGAAA | 0.0593 ± 0.057
159 | ATGTCCAC | -0.16 ± 0.088
160 | ATCCTATA | -0.0834 ± 0.011
161 | CGATAATC | 0.153 ± 0.056
162 | ACGTCACC | 0.224 ± 0.053
163 | ACACCAGG | 0.251 ± 0.02
164 | AAATCAAC | 0.0957 ± 0.027
165 | CTCGCTCC | 0.0375 ± 0.052
166 | AGGTATTC | 0.044 ± 0.074
167 | AATACGCA | 0.0873 ± 0.018
168 | ACGCGGGC | -0.117 ± 0.035
169 | AGCGAGCA | 0.0954 ± 0.074
170 | GTCGCCTA | 0.14 ± 0.059
171 | CCACGGAC | -0.111 ± 0.032
172 | CGAGCCAA | -0.151 ± 0.032

Reference: the supplement of paper PMC4166925
